Some of the results follow. Most values come without repeats; read them as rough.
These compounds were tested on COLO792 (assay: cell count relative to DMSO control; melanoma cells; higher = more viable cells). Conditions: library dose: low library concentration; 72 h.
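Also: cell number obtained by counting DAPI-stained nuclei in high-throughput microscope images with image analysis software, screen run in 1,536-well plates.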

Structure (SMILES) | cell count
O=S(=O)(c1ccccc1)N(CC(F)(F)F)c1ccc(C(O)(C(F)(F)F)C(F)(F)F)cc1 + CC(C)CCN1c2nc(Nc3cc(F)c(O)c(F)c3)ncc2N(C)C(=O)C1C [BID1870] (first compound 1.4 µM, partner dose 0.2 µM) | 87.1%
N#Cc1c(O)c2c(-c3ccc(-c4ccccc4O)cc3)csc2[nH]c1=O + Oc1nc(-c2ccc(C(F)(F)F)cc2)nc2c1CSCC2 [XAV939] (first compound 2 µM, partner dose 2 µM) | 85.5%
N#Cc1c(O)c2c(-c3ccc(-c4ccccc4O)cc3)csc2[nH]c1=O + CCN(CC)CCCCNc1ncc2cc(-c3cc(OC)cc(OC)c3)c(NC(=O)NC(C)(C)C)nc2n1 [PD173074] (first compound 2 µM, partner dose 0.1 µM) | 91.7%
COc1ccc2c(c1)CCC1C2CCC2(C)C(NCCCCCCN3C(=O)C=CC3=O)CCC12 (stereo unspecified) + O=C1NC(=O)/C(=C/c2ccc(-c3ccc(F)cc3O)o2)S1 [AS252424] (first compound 0.4 µM, partner dose 1 µM) | 92.8%
COc1ccc(COc2ccc(Cc3cnc(N)nc3N)cc2OC)cc1 + Cn1cc(/C=C2\C(=O)Nc3cccnc32)c2ccccc21 [GW441756] (first compound 1 µM, partner dose 0.4 µM) | 88.2%
Oc1cc(-c2nc(-c3ccccc3)[nH]c2-c2ccncc2)ccc1Cl + CCCCCCCCCCCC1=C(O)C(=O)C=C(O)C1=O [Embelin] (first compound 0.2 µM, partner dose 1.2 µM) | 83.1%
O=C(O)C(=O)Nc1sc2c(c1C(=O)O)CCNC2 + Cn1cc(/C=C2\C(=O)Nc3cccnc32)c2ccccc21 [GW441756] (first compound 1.66667 µM, partner dose 0.4 µM) | 108%
O=C(O)C(=O)Nc1sc2c(c1C(=O)O)CCNC2 + CCCCCCCCCCCC1=C(O)C(=O)C=C(O)C1=O [Embelin] (first compound 1.66667 µM, partner dose 1.2 µM) | 116%
COc1ccc2c(c1)CCC1C2CCC2(C)C(NCCCCCCN3C(=O)C=CC3=O)CCC12 (stereo unspecified) + CCN(CC)CCCCNc1ncc2cc(-c3cc(OC)cc(OC)c3)c(NC(=O)NC(C)(C)C)nc2n1 [PD173074] (first compound 0.4 µM, partner dose 0.1 µM) | 96%
COC(=O)c1sccc1S(=O)(=O)Nc1ccc(Nc2ccccc2)cc1OC + COc1cc2ncnc(Nc3ccc(Oc4ccccc4)cc3)c2cc1OC [SrcI1] (first compound 1 µM, partner dose 2 µM) | 92.4%
CCN(CC)CCCCNc1ncc2cc(-c3cc(OC)cc(OC)c3)c(NC(=O)NC(C)(C)C)nc2n1 + COc1ccc(COc2ccc(Cc3cnc(N)nc3N)cc2OC)cc1 [GW2580] (first compound 0.1 µM, partner dose 1 µM) | 95.6%
COc1cc(N2CCC(N3CCN(C)CC3)CC2)ccc1Nc1ncc(Cl)c(Nc2ccccc2S(=O)(=O)C(C)C)n1 + CC(C)CCN1c2nc(Nc3cc(F)c(O)c(F)c3)ncc2N(C)C(=O)C1C [BID1870] (first compound 0.08 µM, partner dose 0.2 µM) | 99.1%
c1cc(-c2cnn3cc(-c4ccc(OCCN5CCCCC5)cc4)cnc23)ccn1 [Dorsomorphin] + Cn1cc(/C=C2\C(=O)Nc3cccnc32)c2ccccc21 [GW441756] (first compound 0.4 µM, partner dose 0.4 µM) | 95.9%
Cn1cc(/C=C2\C(=O)Nc3cccnc32)c2ccccc21 + CCCCCCCCCCCC1=C(O)C(=O)C=C(O)C1=O [Embelin] (first compound 0.4 µM, partner dose 1.2 µM) | 92.9%
Oc1nc(-c2ccc(C(F)(F)F)cc2)nc2c1CSCC2 + Cn1cc(/C=C2\C(=O)Nc3cccnc32)c2ccccc21 [GW441756] (first compound 2 µM, partner dose 0.4 µM) | 76.7%
COc1ccc(-c2ccc3c(N4CCOCC4)nc(N4C[C@@H](C)O[C@@H](C)C4)nc3n2)cc1CO + Cc1cc([N+](=O)[O-])ccc1NS(=O)(=O)c1cc(Cl)ccc1Cl [FH535] (first compound 0.02 µM, partner dose 1 µM) | 79.6%
